# Among all 420,000 compounds or so, about 64,000 (15%) were called active. The shares of active, inactive and inconclusive entries below differ from those in the screen. Calls come from the whole dose curve; as a rule, active = well fitted inhibition curve with a large enough effect; inconclusive = small, poorly fitted or top-dose-only effect; inactive = flat fitted curve, though single readings scatter. No potency is given beside an inconclusive call; the fits are too rough.
# Assay: qHTS for Inhibitors of human tyrosyl-DNA phosphodiesterase 1 (TDP1): qHTS in cells in absence of CPT; note: nearly all actives have a fitted effect of over 55% in size
# Conditions: DT40 Tdp1-/- hTDP1 cells, no CPT, ATP luminescence, 48 h; activity change, negative = growth inhibition: at 46.2 µM (top of the series) unless noted
# Procedure, shortened: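 No-CPT arm: Tdp1-/-;hTDP1 DT40 cells (400/well) plus compounds, incubated ≥48 hr at 37 °C. Readout CellTiter-Glo luminescence.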
# % is set by controls: 0 for no effect and ±100 for the full control effect; potency is the fitted concentration of half-maximal effect; tags give direction and shape of the fitted curve.
SMILES,Potency,"activity change, negative = growth inhibition"
O=C(CCc1nc2sc3c(c2c(=O)[nH]1)CCCC3)NCCc1ccc(Cl)cc1,"inconclusive [inhibitor, single point]",
OC[C@@H]1CN(Cc2cccs2)C[C@H](n2cnc3c(NCc4ccco4)ncnc32)O1,,inactive: -8.34%
COc1ccc(OCC(O)Cn2c(NCCO)nc3c2c(=O)n(C)c(=O)n3C)cc1 (configuration not stated),active: 10.3 µM,
Cc1ccc(/C=C2\SC(=S)N(CCC(=O)NNC(=O)c3ccccc3O)C2=O)cc1,"inconclusive [inhibitor, single point]",
CC(C)c1ccc(S(=O)(=O)N2CCN(C(C)C(=O)Nc3ccccc3-c3ccccc3)CC2)cc1 (configuration not stated),"inconclusive [inhibitor, single point]",
Cc1ccc([N+](=O)[O-])cc1S(=O)(=O)Nc1ccc(-c2ccc(N3CCCC3)nn2)cc1,,inactive: -28.1%
Cc1[nH]n(-c2cccc([N+](=O)[O-])c2)c(=O)c1-c1ccccc1,"inconclusive [inhibitor, partial curve]",
Cc1onc(-c2ccccc2Cl)c1C(=O)Nc1nnc(-c2cccc([N+](=O)[O-])c2)s1,"inconclusive [inhibitor, single point]",
CCSc1nnc(-c2cc(Br)ccc2N=Cc2c(C)[nH]n(-c3ccccc3)c2=O)c(=O)[nH]1,"inconclusive [inhibitor, partial curve]",
Cc1ccc(CN2CCN(/N=C/c3sccc3C)CC2)c(C)c1,"inconclusive [inhibitor, partial curve]",
CC(OC(=O)c1ccccc1)C(=O)NCc1ccco1 (configuration not stated),,inactive: 8.06%
C#CCOCCOCCOCCNc1nc(N2CCN(C(=O)CCCCCCCCCCNC(=O)[C@@H](CCC(=O)O)n3cc(CCCCCN)nn3)CC2)nc(N2CCN(C(=O)CCCCCCCCCCNC(=O)[C@H](CCCCN)n3cc(C[C@@H](C)CC)nn3)CC2)n1,"inconclusive [inhibitor, single point]",
CC(C)(O)C#Cc1ccc(C(=O)N2CCN(c3ccc(Cl)cc3)CC2)cc1,"inconclusive [inhibitor, single point]",
COC(=O)c1c(C)[nH]c(C(=O)CSc2nnnn2-c2ccccc2)c1C,"inconclusive [inhibitor, single point]",
CCOc1ccc(NC(=O)c2c(NC(=O)Cc3ccccc3)sc3c2CCCCC3)cc1,active: 20.6 µM,
O=C(CSC1=Nc2ccccc2N=C(c2ccc(F)cc2)C1)Nc1ccccc1,"inconclusive [inhibitor, single point]",
Cc1ccc(NC(=O)c2cc(-n3cnnc3)ccc2Cl)cc1,,inactive: -18.3%

# Reference: PubChem BioAssay AID686978 (National Center for Advancing Translational Sciences (NCATS), 2013)
